In patent US11178870B2 (priority 2017, dated 2021):

Columns and labels:
Assay type in all cases: in vivo
Puccinia recondita = assay: Test Example E: Brown rust on wheat; details: for Test E control value (brown rust on wheat): class of control value, Table 7; for Test E control value: Brown rust on wheat; for control value, Test E (brown rust on wheat): Table 7, Test E
Botrytis cinerea = assay: Test Example B: Gray mold on tomato; details: for Test B control value (gray mold on tomato): class of control value, Table 7; for Test B control value: Gray mold on tomato; for control value, Test B (gray mold on tomato): Table 7, Test B
Plasmopara viticola = assay: Test Example G: Downy mildew on vine; details: for Test G control value (downy mildew on vine): 250 ppm spray, investigated 7 to 10 days after inoculation; for Test G control value (downy mildew on vine) / Test G control value: 2.5 ml/pot; for Test G control value: Downy mildew on vine, 250 ppm sprayed, 7 to 10 days after inoculation; for control value, Test G (downy mildew on vine): 250 ppm sprayed (2.5 ml/pot) before inoculation, assessed 7 to 10 days after inoculation
Alternaia brassicicola = assay: Test Example C: Alternaria sooty spot on cabbage; details: for Test C control value (Alternaria sooty spot on cabbage): class of control value, Table 7; for Test C control value: Alternaria sooty spot on cabbage; for control value, Test C (Alternaria sooty spot on cabbage): Table 7, Test C
[1] = test system: Blumeria graminis f. sp. hordei; assay: Test Example D: Powdery mildew on barley; details: for Test D control value (powdery mildew on barley): class of control value, Table 7; for Test D control value: Powdery mildew on barley; for control value, Test D (powdery mildew on barley): Table 7, Test D

Cn1c(-c2c(F)cccc2F)c(-c2sccc2Cl)cc(Br)c1=O [Compound 441]
Test E control value (brown rust on wheat) (Puccinia recondita): H (H shows the control value more than 50%)
Test B control value (gray mold on tomato) (Botrytis cinerea): H (H shows the control value more than 50%)
Test G control value (downy mildew on vine) (Plasmopara viticola): L (L shows the control value of 50% or less)
Test C control value (Alternaria sooty spot on cabbage) (Alternaia brassicicola): H (H shows the control value more than 50%)
Test D control value (powdery mildew on barley) [1]: L (L shows the control value of 50% or less)

Cc1sc(Br)cc1-c1ccc(=O)n(C)c1-c1c(F)cccc1F [Compound 491]
Test E control value (brown rust on wheat) (Puccinia recondita): H (H shows the control value more than 50%)
Test B control value (gray mold on tomato) (Botrytis cinerea): H (H shows the control value more than 50%)
Test G control value (downy mildew on vine) (Plasmopara viticola): H (H shows the control value more than 50%)
Test C control value (Alternaria sooty spot on cabbage) (Alternaia brassicicola): L (L shows the control value of 50% or less)
Test D control value (powdery mildew on barley) [1]: L (L shows the control value of 50% or less)

Cn1c(-c2c(F)cc(F)cc2F)c(-c2cccnc2Cl)cc(Cl)c1=O [Compound 100]
Test E control value (Puccinia recondita): H (H shows the control value more than 50%)
Test B control value (Botrytis cinerea): H (H shows the control value more than 50%)
Test G control value (Plasmopara viticola): L (L shows the control value of 50% or less)
Test C control value (Alternaia brassicicola): H (H shows the control value more than 50%)
Test D control value [1]: H (H shows the control value more than 50%)

Cc1cnn(-c2cc(Br)c(=O)n(C)c2-c2ccccc2F)c1Cl [Compound 490]
Test E control value (brown rust on wheat) (Puccinia recondita): H (H shows the control value more than 50%)
Test B control value (gray mold on tomato) (Botrytis cinerea): H (H shows the control value more than 50%)
Test G control value (downy mildew on vine) (Plasmopara viticola): H (H shows the control value more than 50%)
Test C control value (Alternaria sooty spot on cabbage) (Alternaia brassicicola): H (H shows the control value more than 50%)
Test D control value (powdery mildew on barley) [1]: H (H shows the control value more than 50%)

CCn1c(-c2ccc(F)cc2Br)c(-n2cc(Cl)cn2)ccc1=O [Compound 164]
Test E control value (Puccinia recondita): H (H shows the control value more than 50%)
Test B control value (Botrytis cinerea): H (H shows the control value more than 50%)
Test G control value (Plasmopara viticola): L (L shows the control value of 50% or less)
Test C control value (Alternaia brassicicola): H (H shows the control value more than 50%)
Test D control value [1]: H (H shows the control value more than 50%)

CCn1c(-c2c(F)cc(OC)cc2F)c(-c2cccnc2Cl)cc(Cl)c1=O [Compound 80]
Test E control value (Puccinia recondita): H (H shows the control value more than 50%)
Test B control value (Botrytis cinerea): H (H shows the control value more than 50%)
Test G control value (Plasmopara viticola): L (L shows the control value of 50% or less)
Test C control value (Alternaia brassicicola): H (H shows the control value more than 50%)
Test D control value [1]: H (H shows the control value more than 50%)

CCn1c(-c2ccc(OC)cc2F)c(-n2cc(F)cn2)ccc1=O [Compound 300]
control value, Test E (brown rust on wheat) (Puccinia recondita): H (H shows the control value more than 50%)
control value, Test B (gray mold on tomato) (Botrytis cinerea): H (H shows the control value more than 50%)
control value, Test G (downy mildew on vine) (Plasmopara viticola): L (L shows the control value of 50% or less)
control value, Test C (Alternaria sooty spot on cabbage) (Alternaia brassicicola): H (H shows the control value more than 50%)
control value, Test D (powdery mildew on barley) [1]: H (H shows the control value more than 50%)

CCn1c(-c2c(F)cc(OC)cc2F)c(-n2cc(Cl)c(C)n2)cc(Cl)c1=O [Compound 143]
Test E control value (Puccinia recondita): H (H shows the control value more than 50%)
Test B control value (Botrytis cinerea): H (H shows the control value more than 50%)
Test G control value (Plasmopara viticola): L (L shows the control value of 50% or less)
Test C control value (Alternaia brassicicola): H (H shows the control value more than 50%)
Test D control value [1]: L (L shows the control value of 50% or less)

CCn1c(-c2c(F)cc(F)cc2F)c(-n2cc(NC(C)=O)cn2)cc(Cl)c1=O [Compound 163]
Test E control value (Puccinia recondita): L (L shows the control value of 50% or less)
Test B control value (Botrytis cinerea): L (L shows the control value of 50% or less)
Test G control value (Plasmopara viticola): H (H shows the control value more than 50%)
Test C control value (Alternaia brassicicola): L (L shows the control value of 50% or less)
Test D control value [1]: L (L shows the control value of 50% or less)

O=c1ccc(-n2cc(Cl)cn2)c(-c2ccc(F)cc2Br)n1CC(F)F [Compound 273]
control value, Test E (brown rust on wheat) (Puccinia recondita): H (H shows the control value more than 50%)
control value, Test B (gray mold on tomato) (Botrytis cinerea): H (H shows the control value more than 50%)
control value, Test G (downy mildew on vine) (Plasmopara viticola): L (L shows the control value of 50% or less)
control value, Test C (Alternaria sooty spot on cabbage) (Alternaia brassicicola): H (H shows the control value more than 50%)
control value, Test D (powdery mildew on barley) [1]: H (H shows the control value more than 50%)

CCn1c(-c2ccc(F)cc2C)c(-n2cc(C)cn2)cc(Br)c1=O [Compound 370]
control value, Test E (brown rust on wheat) (Puccinia recondita): H (H shows the control value more than 50%)
control value, Test B (gray mold on tomato) (Botrytis cinerea): H (H shows the control value more than 50%)
control value, Test G (downy mildew on vine) (Plasmopara viticola): L (L shows the control value of 50% or less)
control value, Test C (Alternaria sooty spot on cabbage) (Alternaia brassicicola): H (H shows the control value more than 50%)
control value, Test D (powdery mildew on barley) [1]: H (H shows the control value more than 50%)

CCn1c(-c2ccc(N3CCCC3)cc2F)c(-n2ncc(C)c2Cl)cc(Br)c1=O [Compound 466]
Test E control value (brown rust on wheat) (Puccinia recondita): H (H shows the control value more than 50%)
Test B control value (gray mold on tomato) (Botrytis cinerea): H (H shows the control value more than 50%)
Test G control value (downy mildew on vine) (Plasmopara viticola): L (L shows the control value of 50% or less)
Test C control value (Alternaria sooty spot on cabbage) (Alternaia brassicicola): H (H shows the control value more than 50%)
Test D control value (powdery mildew on barley) [1]: L (L shows the control value of 50% or less)

CCn1c(-c2ccc(F)cc2F)c(-n2cc(C)cn2)ccc1=O [compound 505, 6-(2,4-difluorophenyl)-1-ethyl-5-(4-methyl-1H-pyrazol-1-yl)pyridin-2(1H)-one]
Test E control value (brown rust on wheat) (Puccinia recondita): H (H shows the control value more than 50%)
Test B control value (gray mold on tomato) (Botrytis cinerea): H (H shows the control value more than 50%)
Test G control value (downy mildew on vine) (Plasmopara viticola): H (H shows the control value more than 50%)
Test C control value (Alternaria sooty spot on cabbage) (Alternaia brassicicola): H (H shows the control value more than 50%)
Test D control value (powdery mildew on barley) [1]: H (H shows the control value more than 50%)

CCn1c(-c2c(F)cc(OC)cc2F)c(-n2cc(Cl)cn2)ccc1=O [Compound 238]
control value, Test E (brown rust on wheat) (Puccinia recondita): H (H shows the control value more than 50%)
control value, Test B (gray mold on tomato) (Botrytis cinerea): H (H shows the control value more than 50%)
control value, Test G (downy mildew on vine) (Plasmopara viticola): L (L shows the control value of 50% or less)
control value, Test C (Alternaria sooty spot on cabbage) (Alternaia brassicicola): H (H shows the control value more than 50%)
control value, Test D (powdery mildew on barley) [1]: H (H shows the control value more than 50%)

Cc1cnn(-c2cc(Br)c(=O)n(C)c2-c2ccc(F)cc2Cl)c1Cl [Compound 515]
Test E control value (brown rust on wheat) (Puccinia recondita): H (H shows the control value more than 50%)
Test B control value (gray mold on tomato) (Botrytis cinerea): H (H shows the control value more than 50%)
Test G control value (downy mildew on vine) (Plasmopara viticola): H (H shows the control value more than 50%)
Test C control value (Alternaria sooty spot on cabbage) (Alternaia brassicicola): H (H shows the control value more than 50%)
Test D control value (powdery mildew on barley) [1]: H (H shows the control value more than 50%)
